Experimental data reported in PubChem BioAssay AID686970 (National Center for Advancing Translational Sciences (NCATS), 2013).
The whole screen tested about 360,000 compounds, of which about 6,000 (1.7%) were called active. Inconclusive means that the source gave no clear call. Such entries were picked first, then a sample of the others. The call rests on the fitted dose curve; in most records, active means well fitted cell-killing curve with a large enough effect; inconclusive means small, poorly fitted or top-dose-only effect, or effect the other way; inactive means flat fitted curve, though single readings scatter. Potencies of inconclusive entries are left out as doubtful fits.

experiment: qHTS for induction of synthetic lethality in tumor cells producing 2HG: qHTS for the HT-1080-NT fibrosarcoma cell line; conditions: HT-1080-NT fibrosarcoma viability, CellTiter-Glo ATP luminescence, 48 h; activity, negative = less viability: at 46.1 µM (top of the series) unless noted;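 further: NT is the 2HG producing partner of a matched IDH1 knockdown line; nearly all actives have a fitted effect of over 55% in size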;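 on activity, negative = less viability: 0% = DMSO-treated cells and -100% = media-only wells without cells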
Summary of the method: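 Toxicity toward the 2HG-producing NT line was scored as %Activity, normalised to DMSO and no-cell wells, from CellTiter-Glo luminescence after 48 hours' treatment.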
Potency means the concentration at half of the fitted maximal effect; tags describe the fitted curve by direction and shape.

SMILES	Potency	activity, negative = less viability
COc1ccc(C2C=C(c3ccc(C)c(C)c3)Nc3ncnn32)c(OC)c1OC (configuration not stated)	inconclusive [cytotoxic, single point]	–
Brc1ccccc1-c1nnc2sc(Cc3ccccc3)nn12	inactive	–
C=CCOc1c(CNc2ccc(C(=O)O)cc2)cccc1OCC	inconclusive [cytotoxic, partial curve]	–
COCCNC(=O)C[C@@H]1C[C@H]2c3cc(NC(=O)Nc4ccc(F)cc4)ccc3O[C@H]2[C@H](CO)O1	inactive	–
Nc1c(C(O)(C(F)(F)F)C(F)(F)F)cc(C(O)(C(F)(F)F)C(F)(F)F)c2ccccc12	active: 20.6 µM	–
CC(C)[C@H](NC(=O)OC(C)(C)C)c1nnc(S(=O)(=O)Cc2c(F)cccc2Cl)o1	active: 6.31 µM	–
Cc1c(C)c2ccc(OCC(=O)NCCCn3ccnc3)cc2oc1=O	inactive	–
O=C(NCCc1ccccc1)c1ccc(NC(=O)c2cccnc2)cc1	inconclusive [cytotoxic, single point]	–
COc1cc(/C=C(/C#N)c2ccccc2)ccc1Oc1ccc([N+](=O)[O-])cn1	inconclusive [cytotoxic, single point]	–
CC(NC(=O)C1CCCC1)c1ccccc1 (configuration not stated)	inactive	–
Cc1nnc2c3ccccc3c(Cl)nn12	–	inconclusive: 26.4%
COc1ccc(NC(=O)CC2C(=O)N(c3ccc(Cl)cc3)C(=S)N2CCc2ccncc2)cc1 (configuration not stated)	inconclusive [cytotoxic, single point]	–
Cc1[nH]c2ccccc2c1/C=C/c1nc2ccccc2c(=O)n1CCO	inconclusive [cytotoxic, single point]	–
O=C1C=C(O)CC2(CCCCC2)C1	inconclusive [rising, single point]	–
CC(=O)Nc1cc(-c2ccc(C(=O)NC3CC3)cc2)cn2c(-c3cccc(C(F)(F)F)c3)cnc12	–	inconclusive: -44.4%
CCNC(=O)C1(C)CCN1CCS(=O)(=O)c1ccc(C)cc1 (configuration not stated)	inactive	–
Oc1ccc(-c2cnc3c(Nc4cccc(OC(F)(F)C(F)F)c4)nccn23)cc1	inconclusive [cytotoxic, single point]	–
CCOC(=O)N1CCN(C(=O)C2CCCN(c3nc4ccc(OCC)cc4s3)C2)CC1 (configuration not stated)	inactive	–
CCCCN(CC)CCCNC(=S)Nc1ccc2nc(N3CCN(C)CC3)cc(C)c2c1	active: 18.4 µM	–
CCOC(=O)c1cc(C)nc(Sc2ccc(C)cc2)c1C#N	inconclusive [cytotoxic, partial curve]	–
Cc1n[nH]c(=S)n1/N=C/c1ccc(-c2ccccc2[N+](=O)[O-])o1	inconclusive [cytotoxic, partial curve]	–
CCOC(=O)c1ccc(-c2c(C(=O)OCC)oc3cc(O)c(CC)cc3c2=O)o1	inactive	–
O=C(NCc1cccs1)C1(S(=O)(=O)c2ccccc2)CC=CC1	inconclusive [rising, single point]	–
CCOC(=O)c1oc2ccc(CNC3CCCCC3)c(Cl)c2c1C	active: 11.2 µM	–

SMILES	Potency	activity, negative = less viability
COc1ccccc1C(CC(=O)c1ccccc1)CC(=O)c1ccccc1	inactive	–
CC(C)CCNC(=S)Nc1ccc([N+](=O)[O-])cc1	inconclusive [cytotoxic, single point]	–
N#Cc1nc(-c2ccccc2Cl)oc1N1CCOCC1	inconclusive [cytotoxic, single point]	–
CC1CN(C(=O)c2ccc(COc3ccc(C(C)C)cc3)o2)CC(C)O1 (configuration not stated)	inconclusive [cytotoxic, single point]	–
C[C@@H]1CCC(=O)N(CC[C@H](Sc2ccc(Br)cc2)c2ccccc2)CC1	inconclusive [cytotoxic, single point]	–
Cc1cccc(CN2CCCC(C(=O)Nc3ccc(-c4cscn4)cc3)C2)c1 (configuration not stated)	inconclusive [cytotoxic, partial curve]	–
CCOC(=O)c1c(-c2ccc(-c3ccccc3)cc2)csc1NC(=O)C1C2CCC(O2)C1C(=O)O (configuration not stated)	inconclusive [cytotoxic, partial curve]	–
O=C(C1CCCCC1)N1C[C@@H](O)[C@H](n2cc(-c3ccc(F)cc3)nn2)C[C@@H]1c1ccccc1	inconclusive [cytotoxic, single point]	–
CC(C)(C)c1nn(-c2ccccc2)c2[nH]c(=O)c(CNCc3ccc4c(c3)OCO4)cc12	inconclusive [cytotoxic, single point]	–
CCC(C)NC(=O)COC(=O)c1ccccc1OCC(=O)Nc1ccc(Br)cc1 (configuration not stated)	inconclusive [rising, single point]	–
COC(=O)C(NC(C)=O)(Nc1nc2c(C)cc(C)cc2s1)C(F)(F)F (configuration not stated)	active: 15.8 µM	–
COc1cccc(NC(=O)C(C)(C)C)c1	inactive	–
O=C(c1cccnc1)N(Cc1ccccc1)c1ccccc1	inconclusive [cytotoxic, single point]	–
COc1cnc(-c2ccccn2)nc1Sc1c(Cl)cccc1Cl	active: 15.8 µM	–
CCN1C(=O)S/C(=C/c2c(OCc3ccc(C(=O)O)cc3)ccc3ccccc23)C1=O	inconclusive [cytotoxic, single point]	–
CCOC(=O)c1nn(-c2ccc(F)cc2)cc1O	–	inconclusive: 30.2%
NC(COCc1ccccc1)c1csc(Nc2ccc(C(F)(F)F)cn2)n1 (configuration not stated)	inconclusive [cytotoxic, single point]	–
O=C(CN1C(=O)C2CC=CCC2C1=O)N1CCN(c2ccc([N+](=O)[O-])cc2)CC1 (configuration not stated)	inactive	–
CCN1CCN(CCNC(=O)c2ccc(/C=C3/Sc4ccccc4N(Cc4cccc(Cl)c4)C3=O)cc2)CC1	active: 14.6 µM	–
CC(C)c1ccc(OCC(=O)NNC(=S)NC(=O)C2CC2)cc1	inconclusive [cytotoxic, full curve]	–
Cc1cc(F)ccc1N1CCC(N2CCN(CCC(C)C)C(CCO)C2)CC1 (configuration not stated)	active: 18.4 µM	–
O=C(CCl)Nc1ccc(Oc2cnc3ccccc3n2)cc1	inconclusive [cytotoxic, single point]	–
C[C@H](O)[C@@H]1C(=O)N2CCc3c([nH]c4ccccc34)[C@@H]2C[C@@H]1N(C)C(=O)Nc1cccc2ccccc12	inconclusive [cytotoxic, partial curve, poor fit]	–
CC(C)CN(C(=O)COC(=O)CNC(=O)c1ccccc1F)c1c(N)n(Cc2ccccc2)c(=O)[nH]c1=O	inactive	–

SMILES	Potency	activity, negative = less viability
COc1ccccc1CN(Cc1nc2ccccc2c(=O)[nH]1)C(=O)Nc1cccc(C)c1	active: 7.08 µM	–
CCOc1ccc(CNC(=O)C(C)n2ccc3cc(S(=O)(=O)N4CCCC4)ccc32)cc1 (configuration not stated)	inconclusive [cytotoxic, single point]	–
COc1ccc(CN2C(=O)CN=C2Nc2cc(C)ccc2C)cc1	inconclusive [cytotoxic, partial curve]	–
COc1cccc(C(=O)Nc2ccc(Oc3cccc(C(F)(F)F)c3)nc2)c1	inconclusive [cytotoxic, single point]	–
CCc1ccc(OCC(=O)Nc2cccc3c2CCCC3)cc1	inactive	–
COC(=O)c1c(O)cc(C(C)(C)C)n(-c2ccccc2)c1=O	inactive	–
CNC(=O)c1ccc(Nc2nnc(-c3ccc(O)cc3)c3ccccc23)cc1	inactive	–
O=C(COc1cccc(Br)c1)Nc1ccc(Cl)c(S(=O)(=O)N2CCOCC2)c1	active: 16.4 µM	–
CSc1cccc(NC(=S)N(CCCN2CCCC2)Cc2cccn2Cc2ccc(Cl)cc2)c1	active: 18.4 µM	–
CN(C)CCN(C(=O)c1ccc2ccccc2c1)c1nc2ccc(Br)cc2s1	inactive	–
O=S(=O)(Cc1cc(Cl)nc(-c2ccncc2)n1)c1ccccc1	active: 23.1 µM	–
CCN(CC)CCNC(=S)Nc1ccc2nc(N3CCN(C)CC3)cc(C)c2c1	inconclusive [cytotoxic, partial curve]	–
Cc1cccc(NC(=O)Nc2ccc(OCc3ccccc3)cc2)n1	inconclusive [cytotoxic, single point]	–
N#CC1=C(SCC(=O)NCc2ccccc2)NC(=O)CC1c1ccco1 (configuration not stated)	inactive	–
COc1ccc(-c2nc3ccc(C)cn3c2Cc2ccsc2)cc1OC	inconclusive [cytotoxic, single point]	–
O=c1oc2ccccc2c(O)c1C=Nc1cccnc1	inconclusive [cytotoxic, single point]	–
Cc1ccccc1NC(=O)CSC1=C(C#N)C(c2ccsc2)CC(=O)N1 (configuration not stated)	inconclusive [cytotoxic, single point]	–
CCOc1ccc2oc(C(=O)OCC(=O)NC3CC3)c(C)c2c1	inactive	–
CCN(CC)c1ccc(C(=C2C=CC(=[N+](CC)CC)C=C2)c2ccccc2)cc1	active: 2.59 µM	–
Nn1c(-c2cccs2)nc2sc3c(c2c1=O)CCCC3	inconclusive [cytotoxic, single point]	–
COc1ccc(S(=O)(=O)NC(C)C(=O)NCc2cccnc2)cc1Cl (configuration not stated)	inconclusive [rising, single point]	–
Cn1ccc(CC(=O)N2CCC(N3CCC(C(=O)N4CCCC4)CC3)CC2)c1	inactive	–
O=C1C=C(c2ccc3c(c2)oc2ccccc23)C[C@@H](c2ccc3c(c2)OCO3)C1	inconclusive [rising, single point]	–
Cc1ccc(N(CC(=O)NC(C)c2ccccc2)S(=O)(=O)c2c(C)n[nH]c2C)cc1 (configuration not stated)	inactive	–
